Out of some 150,000 compounds screened, about 540 (0.36%) showed an effect of 50% or more. Some of the results follow.

The assay has as its system Plasmodium falciparum. The experiment in a line: Primary screen in NF54 nanoGlo assay, in single point, at 2uM, 72h; a lower Z score goes with more inhibition. In kind it is functional, Erythrocyte. Conditions: timepoint 72 hour.
As a reminder, the % Inhibition is the drop in the measured response relative to a control, in per cent. `N#Cc1ccc(NCc2nccc(N)n2)nc1`: the “% Inhibition” value is 31% and the Z score is -1.23.
Regarding `Cc1nc(C(=O)N2CCc3onc(-c4cccc5ccccc45)c3C2)cs1`, the “% Inhibition” value was -15% and the Z score is on record as 1.69.
With `CCCN(Cc1cc(NC(=O)c2cccs2)ccc1N(C)C)C(=O)Cc1cccs1`, the “% Inhibition” value is listed as -6% and the Z score was determined as 0.89.
Regarding `COc1ccc(NC(=O)CN2CCC[C@H]2c2nnc(C)o2)cc1OC`, the “% Inhibition” value is on record as -3% and the Z score is recorded as 0.4.
As for `NC(=O)[C@@H]1C[C@@H](F)CN1CC(=O)Nc1ccc(Br)cn1`, the “% Inhibition” value stood at 2% and the Z score is given as -0.22.
For `Cc1ccc(NC(=O)CC(C2CC2)C2CC2)nc1` the same measures were 5% and -0.69.
Regarding `CC(C)N(CCOCCO)c1ccc(C#N)nn1`, the “% Inhibition” value was -3% and the Z score came to 0.5.
In the case of `Clc1cccc(OC2CN([C@H]3CCN(c4ccccc4)C3)C2)c1`, the “% Inhibition” value was -9% and the Z score is 1.21.
On to `O=C(NCC1(c2c(F)cccc2F)CCCC1)[C@H]1CCS(=O)(=O)C1`, for which the “% Inhibition” value is given as -8% and the Z score came to 0.85.
For the molecule `Cc1cccc(N2CCN(C(=O)c3ccc(C)c(NC(=O)c4nsc5ccccc45)c3)C[C@@H]2C)c1`, the “% Inhibition” value is -4% and the Z score was found to be 0.79.
Consider `Cn1c([C@H]2CCN(Cc3ccc(Cl)cc3)C2)nc2ccccc21`, for which the “% Inhibition” value was 33% and the Z score is -3.7.
In the case of `Cn1ncc2c(=O)[nH]c(CN3CCN(C(=O)CC(C)(C)C)CC3)nc21`, the “% Inhibition” value is reported as -8% and the Z score is 1.53.
For `Cn1nc(C(=O)N2CCC(Cc3ccccn3)CC2)cc1OC(F)F` the same measures were 7% and -1.03.
On to `CCc1c(C(=O)N2C[C@@H](CN3CCCCC3)[C@@H](CO)C2)csc1C`, for which the “% Inhibition” value is reported as -2% and the Z score stood at 0.32.
On to `O=C(O)c1csc(CN2C3CCC2CC(CC(F)F)C3)n1` (stereo not drawn), for which the “% Inhibition” value turned out to be 1% and the Z score is -0.21.
For `O=C(Nc1ccn(CC(F)(F)F)n1)N1CCC[C@@H]1CN1CCCC1` the same measures were -4% and 0.45.
As for `COCCN1CCC(CN(C[C@H]2CCCO2)C(=O)Cc2c(F)ccc(F)c2F)CC1`, the “% Inhibition” value is given as -4% and the Z score worked out at 0.53.
For the molecule `O=C(NCCc1c[nH]c2ccccc12)c1ccoc1`, the “% Inhibition” value is -2% and the Z score is 0.37.
On the same counts, the results for `O=C(Nc1cnc(-n2ccnc2)nc1)c1ccncc1` are -17% and 3.14.
Consider `COc1ccc(CN2CC(N3CCNC3=O)C2)c(OC(F)F)c1`, for which the “% Inhibition” value is -9% and the Z score is on record as 1.31.
For `Nc1c(Oc2ccccc2)ncnc1-c1ccccc1` the same measures were -2% and 0.34.
As to `Cc1cc(=O)c(C(=O)NCC2CCCCC2OCC(F)(F)F)c[nH]1` (stereo not drawn), the “% Inhibition” value is listed as -12% and the Z score is 1.
For the molecule `O=C(c1ccoc1C1CC1)N1CCOc2cc(F)c(F)cc21`, the “% Inhibition” value is reported as -15% and the Z score was determined as 1.88.
On the same counts, the results for `O=C(NC1CCCCC1Oc1ccccc1)N1CCC(CCO)C1` (stereo not drawn) are -3% and 0.35.
For `O=C(NC1CCN(C(=O)c2cc(-c3ccccc3)n[nH]2)CC1)c1ccc2ccccc2c1`, the “% Inhibition” value is -5% and the Z score came to 0.69.
On the same counts, the results for `COc1ccc(-c2nn(-c3ccccc3C)cc2CN(C)Cc2nccn2C)cc1F` are -8% and 1.05.
As to `CC(C)(C)c1ccc([C@@]2(C)NC(=O)N(CN(CC#N)C3CC3)C2=O)cc1`, the “% Inhibition” value is -31% and the Z score came to 3.64.
Take `CCOc1ccccc1-c1nccn1[C@H]1CC(=O)N(CCOC)C1`: the “% Inhibition” value was -11% and the Z score was found to be 1.49.
Regarding `Cc1ccc(S(=O)(=O)N2C[C@@H](C(=O)NCc3ccccc3C)Oc3ccc(C)cc32)cc1`, the “% Inhibition” value is on record as -13% and the Z score is 1.71.
Take `O=S1(=O)CC(c2nc(-c3ccsc3)no2)C(C(F)(F)F)C1` (stereo not drawn): the “% Inhibition” value is given as -4% and the Z score was 0.71.
With `O=S1(=O)CC[C@H](c2noc(C3CCCCCC3)n2)C1`, the “% Inhibition” value worked out at 22% and the Z score is listed as -2.5.
For `NC(=NCc1cc2cc(F)ccc2s1)N1CCOCC1` the same measures were -5% and 0.49.
In the case of `C[C@@H](CCCO)NS(=O)(=O)c1cc(F)ccc1Br`, the “% Inhibition” value is -16% and the Z score amounted to 1.83.
`Cc1ccnc(N2CCN(S(=O)(=O)Cc3ccon3)CC2)c1`: the “% Inhibition” value was determined as 33% and the Z score is recorded as -0.62.
For the molecule `COc1ccc(-c2cccc(C(=O)N3CCN[C@@H](C)C3)c2)c(OC)c1`, the “% Inhibition” value is recorded as -14% and the Z score is on record as 2.1.
As for `O=S1(=O)CCC(CN[C@H]2CCCc3sccc32)CC1`, the “% Inhibition” value is reported as -14% and the Z score is listed as 1.84.
As for `CCOc1cccc2c1OCC(C(=O)N1CCC(CC(N)=O)CC1)=C2`, the “% Inhibition” value was 4% and the Z score was -0.47.
Take `CCCN(CC(=O)N1CCn2cccc2[C@H]1c1ccc(C(C)(C)C)cc1)C(=O)C1CCCC1`: the “% Inhibition” value is given as -1% and the Z score stood at 0.09.
As for `N#Cc1ccc(-c2nnc(Cn3ccnc3)o2)cc1`, the “% Inhibition” value is -7% and the Z score was 0.92.
Consider `N#Cc1ccc(NC(=O)c2ccc(-c3noc(C4CCCC4)n3)cc2)cc1`, for which the “% Inhibition” value is given as -4% and the Z score was 0.75.
On the same counts, the results for `Cc1ccc(-c2nc3n(CC(=O)N4CCOCC4)c4c(c(=O)n3n2)CCC4)cc1` are 6% and -0.74.
On the same counts, the results for `CCOC(=O)c1ccc(NS(=O)(=O)C2(COC)CC2)c(O)c1` are -1% and 0.07.
Consider `Cc1ccc2ncccc2c1S(=O)(=O)N1CC(N2CCOCC2)C1`, for which the “% Inhibition” value is -10% and the Z score was determined as 1.93.
For `OCCOC1(CNc2c(F)cncc2Cl)CCOCC1` the same measures were -13% and 1.52.
On the same counts, the results for `Cn1nccc1[C@@H](O)CNC(=O)Nc1ncc(C2CCCCC2)s1` are 1% and -0.18.
Consider `CN(Cc1cccs1)C(=O)CC1CCCC1`, for which the “% Inhibition” value is given as -3% and the Z score is reported as 0.53.
For `N#CC1CCC(N2CCCC(c3n[nH]c(-c4ccccc4)n3)C2)C1` (stereo not drawn) the same measures were -22% and 3.42.
Regarding `Cc1oncc1C(=O)N1CCC[C@H](n2cnc3ccccc3c2=O)C1`, the “% Inhibition” value was -9% and the Z score was determined as 1.57.
In the case of `CC(C)c1coc(NC(=O)c2cccn(CC(F)(F)F)c2=O)n1`, the “% Inhibition” value is listed as 4% and the Z score is -0.52.
Consider `CCc1ccc(-c2nc3sc(-c4ccc(CC)cc4)nc3s2)cc1`, for which the “% Inhibition” value is given as -18% and the Z score was 1.98.
As for `O=C(CCC1CCCC1)N(CCN1CCCCC1)C1CCOCC1`, the “% Inhibition” value is recorded as -8% and the Z score worked out at 1.2.
Consider `CC[C@H](C)N(Cc1cccc(OS(=O)(=O)c2cccc(C(F)(F)F)c2)c1)C(=O)Nc1ccccc1OC`, for which the “% Inhibition” value is -1% and the Z score is 0.23.
On the same counts, the results for `Cc1nn(Cc2c(F)cccc2Cl)c(C)c1NC(=O)C1CCN(S(C)(=O)=O)CC1` are 3% and -0.37.
Take `COc1ccc(OC[C@@H](O)CN2CCC(O)CC2)c(CNCc2cc(F)ccc2C)c1`: the “% Inhibition” value is listed as -1% and the Z score came to 0.27.

The values are drawn from ChEMBL document CHEMBL4888484, “Replenishing the malaria drug discovery pipeline: Screening and hit evaluation of the MMV Hit Generation Library 1 (HGL1) against asexual blood stage Plasmodium falciparum ,using a nano luciferase reporter read-out” (2022).
